Reference: the BET-seq Pho4 binding data (Le et al. 2018)
This is one part of the list. The energies were worked out here from pooled read counts, against the library average; single values are noisy.

target: T1, Pho4 (S. cerevisiae) (UniProt P07270); test: relative binding free energy (BET-seq); higher = weaker binding; conditions: reference: library average
T1 sequence: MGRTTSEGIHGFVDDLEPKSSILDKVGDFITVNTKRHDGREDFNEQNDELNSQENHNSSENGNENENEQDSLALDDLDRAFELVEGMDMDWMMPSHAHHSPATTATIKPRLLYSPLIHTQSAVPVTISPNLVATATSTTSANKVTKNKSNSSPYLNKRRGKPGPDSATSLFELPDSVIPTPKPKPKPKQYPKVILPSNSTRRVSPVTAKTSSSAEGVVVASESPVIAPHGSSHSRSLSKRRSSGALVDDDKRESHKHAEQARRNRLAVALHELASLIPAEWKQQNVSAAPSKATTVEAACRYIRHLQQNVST

Relative binding free energy, -0.21 kcal/mol:
GGAAGCACGTGGGGTG
CCGGGCACGTGGGTAG

Relative binding free energy, -0.11 kcal/mol:
TATGGCACGTGTTTTG
TGGAACACGTGGGTGT
TGTTGCACGTGGGTTG
GCAGGCACGTGGGCGC
GGAAGCACGTGGGGTT

Relative binding free energy, 0.01 kcal/mol:
TTATACACGTGTGCAT
TTCGGCACGTGTGTGG

Relative binding free energy, -0.01 kcal/mol:
CAGTGCACGTGGACGG
GCTGGCACGTGTATGG
TTTCTCACGTGGCTGT
GTTTACACGTGCTGTG
AGTGACACGTGTAAGG
TGTATCACGTGCCTGT

Relative binding free energy, -0.22 kcal/mol:
ATTGGCACGTGGTAGA
ACATGCACGTGGGGGC
AGGACCACGTGGGTTG
TGTGACACGTGGTCGG
ATGGGCACGTGGTCTA
TTCAGCACGTGGTATT

Relative binding free energy, -0.06 kcal/mol:
TCTGGCACGTGCGTTG
TGTGCCACGTGTTGGC
ATGTACACGTGTTGTG
GTTAGCACGTGCTATT

Relative binding free energy, 0.18 kcal/mol:
TGTCTCACGTGGTAAG

Relative binding free energy, -0.33 kcal/mol:
TAGGCCACGTGGGTAT

Relative binding free energy, 0.12 kcal/mol:
TATTCCACGTGTAGGG
TGGTTCACGTGCCTTT
ATTTTCACGTGTAATG
GGTTGCACGTGATCTA
GATCGCACGTGGATGT

Relative binding free energy, -0.08 kcal/mol:
CTATGCACGTGGCGGT
GGCAGCACGTGGTGAT
AAGGTCACGTGGGCGA

Relative binding free energy, -0.19 kcal/mol:
GTATGCACGTGGGCTA

Relative binding free energy, 0.02 kcal/mol:
ATTATCACGTGTTTTA
ATGATCACGTGGGATA
ACGGTCACGTGTCGGT
GGTGTCACGTGGTCTA
GTATGCACGTGTTCTA
GATGGCACGTGTCAGG
GTGATCACGTGGGAGG

Relative binding free energy, 0.05 kcal/mol:
GAAATCACGTGTGTGG
GTTCACACGTGGTTGA
GGGTACACGTGGTGTT
TTCAGCACGTGGTTCT
TTGTACACGTGCCTGG
TAAATCACGTGGATTG

Relative binding free energy, 0.29 kcal/mol:
TTTTGCACGTGAAGTG
AGTTACACGTGAAGTA

Relative binding free energy, -0.18 kcal/mol:
CGGGGCACGTGCGGCA
ATACGCACGTGTGTTG

Relative binding free energy, 0.22 kcal/mol:
TATCTCACGTGGAGGT
AGATTCACGTGTGGTA
AATCTCACGTGTGGGT
TCGGGCACGTGAGATA
GGGGACACGTGATGTT
GTTGTCACGTGACGGG
TAGGTCACGTGTTAGC

Relative binding free energy, 0.21 kcal/mol:
TTCTACACGTGGAGTA
TTTATCACGTGTTTAG

Relative binding free energy, 0.03 kcal/mol:
CTTGTCACGTGGTGGG
TATTACACGTGGGTGG
AATGGCACGTGATGAG
GGGTGCACGTGATGCG

Relative binding free energy, 0.23 kcal/mol:
TGGCTCACGTGTGCGG
GATAACACGTGTTCTT
TCGGTCACGTGTTGGT

Relative binding free energy, 0.44 kcal/mol:
GTCTTCACGTGAGTAG

Relative binding free energy, 0.3 kcal/mol:
GGTTTCACGTGGGCAC
GGGTTCACGTGCGTAA

Relative binding free energy, 0.49 kcal/mol:
GAGTTCACGTGAGTGA

Relative binding free energy, -0.02 kcal/mol:
TAGGACACGTGTGTAA
GGTGGCACGTGCTAAG
ATCGGCACGTGAGGGC
AATCGCACGTGGGAGT
CTTTGCACGTGGATGT

Relative binding free energy, -0.24 kcal/mol:
AACGGCACGTGGGGGT

Relative binding free energy, -0.32 kcal/mol:
TGGGGCACGTGCGGCC
GGGGGCACGTGCCGCG

Relative binding free energy, 0.07 kcal/mol:
CTGGTCACGTGGATGC
AACGTCACGTGTGTGA
ATTGTCACGTGTGTTG
GGGGGCACGTGTGAGT
TGGAACACGTGGTATT
TATGTCACGTGTTTCT
TATTGCACGTGATGAG

Relative binding free energy, 0.36 kcal/mol:
ATGATCACGTGTGATT
TTGTTCACGTGCGACG
GGTTTCACGTGTCTTA
TGGCTCACGTGATGTG
GCGAGCACGTGAGGTT

Relative binding free energy, 0.24 kcal/mol:
ATATTCACGTGGTAGT
TGGACCACGTGAGAGT
GGGTACACGTGATGAA
TCGGACACGTGGACGG
ATTTTCACGTGCTGGC

Relative binding free energy, -0.04 kcal/mol:
TTAGGCACGTGATCGT
GTGTACACGTGGGTTT

Relative binding free energy, 0 kcal/mol:
TTATGCACGTGGGTCT
TGTTGCACGTGTCCGG
TTCTGCACGTGGCGAG
GTTTGCACGTGGCTTT
CATGTCACGTGCTGTT
CTTACCACGTGTGGTT
AAATGCACGTGTTTCG
CTTTACACGTGGGTTT
TAATCCACGTGGGGAT

Relative binding free energy, -0.17 kcal/mol:
TGGTGCACGTGGCCAG
ATATGCACGTGGTGGT

Relative binding free energy, -0.15 kcal/mol:
TTGAGCACGTGTGGCG
TTTAGCACGTGCTGTA
GTGTGCACGTGCGGCG
TAGCGCACGTGCGGGT

Relative binding free energy, 0.14 kcal/mol:
TTGCTCACGTGGGGAT
GGACTCACGTGGTTGG
GGTCTCACGTGGGTGC
ATGGTCACGTGTCAGG

Relative binding free energy, -0.05 kcal/mol:
GGGGGCACGTGGCAAC
ATAGGCACGTGTGAGT
TTGGGCACGTGTTCTC
ACGGGCACGTGTCAGG
TTACGCACGTGGAAGG

Relative binding free energy, -0.09 kcal/mol:
GGAGGCACGTGGATAG
GGGGGCACGTGGGAAG
GCTGGCACGTGGAGGC
ATATACACGTGTGGGG
GGTGGCACGTGCAGTG
TGAGACACGTGCTGGT
CAGGGCACGTGTGCGA

Relative binding free energy, -0.12 kcal/mol:
AGGTGCACGTGGGTGT
CAGAACACGTGTTGTG

Relative binding free energy, 0.08 kcal/mol:
AAGTACACGTGGGGAT
TTGGCCACGTGCTGAG
TATGGCACGTGTCCTT
GATAGCACGTGATAGG

Relative binding free energy, 0.43 kcal/mol:
TAATACACGTGAAGGT

Relative binding free energy, 0.13 kcal/mol:
GGGAACACGTGGAAGG
CGGTTCACGTGGTGTA
TTGTACACGTGTCTTT
GTAGACACGTGGGAGC
GGATGCACGTGATTGC

Relative binding free energy, 0.32 kcal/mol:
TGTTACACGTGAGAGT
GTGTTCACGTGGTAGA
GTGTTCACGTGGTGAG

Relative binding free energy, -0.16 kcal/mol:
GTGAGCACGTGTGCAG
AGTGGCACGTGCACGG
TTTGGCACGTGCAGAG

Relative binding free energy, 0.38 kcal/mol:
GTGCTCACGTGATTTT

Relative binding free energy, 0.15 kcal/mol:
AATTTCACGTGCATTG
TTGTACACGTGTGGTC
TGCGTCACGTGTGTTT

Relative binding free energy, 0.11 kcal/mol:
GTATCCACGTGTGGAT
CGCATCACGTGTGTGG

Relative binding free energy, -0.2 kcal/mol:
AAACGCACGTGGAGGG

Relative binding free energy, -0.07 kcal/mol:
TGTGACACGTGGCAGT
TATCGCACGTGTTTAT

Relative binding free energy, 0.17 kcal/mol:
GTGAGCACGTGACGGG
TAAGTCACGTGTGTCG
ATGTTCACGTGGGAGG

Relative binding free energy, 0.1 kcal/mol:
TTCGTCACGTGGTATG
TTAATCACGTGGTATG
AGGTACACGTGCAGGA
CTTATCACGTGTATGA
TAGGTCACGTGTAGAA
TTTTGCACGTGGAGTT
GAATGCACGTGTTTTA

Relative binding free energy, 0.25 kcal/mol:
GGGCTCACGTGTGTAT
GAGGTCACGTGGATGG

Relative binding free energy, -0.42 kcal/mol:
TCAGGCACGTGGGCGT

Relative binding free energy, 0.09 kcal/mol:
GGATGCACGTGTTTTA
ATTAGCACGTGTAAGG

Relative binding free energy, 0.31 kcal/mol:
TTGTTCACGTGTGTAA
GTCTTCACGTGTATAG

Relative binding free energy, 0.06 kcal/mol:
AGATGCACGTGGCTCG
TTATTCACGTGGGACA

Relative binding free energy, 0.28 kcal/mol:
TGTTTCACGTGTTTCG
TTTACCACGTGAGGGA
AGATTCACGTGATTTA

Relative binding free energy, 0.35 kcal/mol:
GTTATCACGTGGAAGA
TCTTTCACGTGTTTAG
TAATTCACGTGTAGTC

Relative binding free energy, 0.19 kcal/mol:
TTACGCACGTGAAAGT
GTGCTCACGTGTGGGT
GTGTACACGTGAAGTT
AATTACACGTGTTGCT

Relative binding free energy, 0.41 kcal/mol:
GTGTTCACGTGAAACG
AGTTTCACGTGTATGC

Relative binding free energy, -0.13 kcal/mol:
CTGTGCACGTGGCAGG
GAGGGCACGTGCTGAG
TACTGCACGTGGGGTG
TGAGCCACGTGGGTAT

Relative binding free energy, 0.26 kcal/mol:
GTTTACACGTGTCATG
TTGTTCACGTGGTAAA
AATGTCACGTGAGGTT
TGGCTCACGTGTCAGT
TGCGTCACGTGAAAGT

Relative binding free energy, 0.34 kcal/mol:
TGGGTCACGTGAAAGG

Relative binding free energy, -0.23 kcal/mol:
TCAGGCACGTGGTGCT
AGGGACACGTGGGTAA
GGAAGCACGTGGCGTG
TTGCGCACGTGTGTGA
CGTGCCACGTGGGTAT

Relative binding free energy, 0.2 kcal/mol:
GACTTCACGTGGGGCG
ATGTGCACGTGAACAG
TAATTCACGTGTATGT
TGTAGCACGTGATTTT
GGGCTCACGTGGTAAA
TAGGACACGTGTGAGG

Relative binding free energy, -0.03 kcal/mol:
TGAAGCACGTGTGGCG
TGGGCCACGTGATTGT
TTTGCCACGTGTGTGC
AGAATCACGTGGGGGG
TGCGTCACGTGGAGCT

Relative binding free energy, 0.04 kcal/mol:
TTGTGCACGTGTCGGG
GGTAGCACGTGATTAT
TTATCCACGTGTTATA
TCTGGCACGTGATGCG

Relative binding free energy, 0.37 kcal/mol:
TGTTTCACGTGAAGGG

Relative binding free energy, 0.39 kcal/mol:
GGGTTCACGTGTGGTT
GTAATCACGTGTAGAT

Relative binding free energy, -0.14 kcal/mol:
GGCGGCACGTGGTTTG

Relative binding free energy, 0.16 kcal/mol:
AATAGCACGTGATGGT
TGTTACACGTGTCCTG
GATAGCACGTGGTGAA

Relative binding free energy, -0.1 kcal/mol:
GCGTGCACGTGGCGGA
TAAAGCACGTGATAGT

Relative binding free energy, 0.33 kcal/mol:
TGTTTCACGTGAGACT
TTATTCACGTGTCTTT
